Reference: PubChem BioAssay AID1347417 (National Center for Advancing Translational Sciences (NCATS), 2020)
In all, about 120,000 compounds went through this assay and about 5,300 (4.4%) were called active. Inconclusive means that the source gave no clear call. Such entries were picked first, then a sample of the others. Calls follow the shape of the dose curve; as a rule, active = well fitted inhibition curve with a large enough effect; inconclusive = small, poorly fitted or top-dose-only effect; inactive = no such curve, though single readings can be large or run the other way. Potencies of inconclusive entries are doubtful fits and often do not repeat.

Experiment: qHTS Primary assay for Inhibitors of Plasmodium falciparum Dd2 growth in vitro; also: nearly all actives have a fitted effect of over 65% in size
Conditions: P. falciparum Dd2 growth, SYBR Green, 72 h; series mostly up to 28.9 µM
In short: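 Infected erythrocytes (Dd2, 0.3% parasitemia, 2.5% hematocrit final) are added to compound in RPMI-1640/Albumax II medium, grown 72 h at 37C in low oxygen, then lysed with saponin/Triton-X containing SYBR Green and read by fluorescence.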
Potency is read from the fitted curve at half-maximal effect; tags tell the direction and shape of the fitted curve.

| Structure (SMILES) | Potency |
| --- | --- |
| Cc1cccc(NC(=O)CSc2nc3c(oc4ccccc43)c(=O)n2-c2ccccc2)c1C | inactive |
| COc1ccc(-n2nc(C)c([C@@H]3C=C[C@@H](NC(=O)NC4CCCCC4)C3)c2C)cc1 | active: 15.8 µM |
| COc1ccccc1-c1c(C(F)(F)F)oc2c(CN3CCCCC3C)c(O)ccc2c1=O (centres undefined) | inconclusive: 5.62 µM [inhibitor, partial curve] |
| CCN1C(=O)c2ccccc2S(=O)c2ccc(C(=O)N3CCN(c4ccc(F)cc4)CC3)cc21 (centres undefined) | active: 8.91 µM |
| O=C(c1nnc(CNc2ccc(OC(F)(F)F)cc2)n1-c1ccccc1)N1CCC[C@@H]1CN1CCCC1 | inactive |
| COc1ccc(-c2cc(-c3ccc(N4CCOCC4)nc3)cn3cncc23)cn1 | inconclusive: 2.82 µM [inhibitor, partial curve, poor fit] |
| COc1ccc(-c2cn3c(n2)CO[C@@H](CNS(=O)(=O)c2ccc(C)cc2)C3)cc1 | active: 12.6 µM |
| CCNC(=O)N1CCc2c(sc3ncnc(N(C)C)c23)C1 | inconclusive: 15.8 µM [inhibitor, single point] |
| CCC1=C(C(=O)OC)C(c2ccccc2OC)N2C(CC(=O)NCC3CC3)=CSC2=N1 (centres undefined) | inconclusive: 7.08 µM [inhibitor, partial curve, poor fit] |
| Cc1nccn1CCN(C)C(=O)c1coc(COc2cccc(C(F)(F)F)c2)n1 | inconclusive: 10 µM [inhibitor, single point] |
| CCN1c2cc(C(=O)Nc3cccc(F)c3)ccc2C(=O)N2CCCCCC21 (centres undefined) | inconclusive: 3.16 µM [inhibitor, partial curve] |
| COC[C@@H]1CN(C(=O)Cc2ccc(OC)cc2)C[C@H]1c1ccncc1 | inactive |
| CCNC(=O)[C@@H]1C[C@H](NC(=O)c2cc(C)on2)CN1Cc1nccs1 | inactive |
| O=C(NC1CCN(c2cc(-c3ccccc3)[nH]n2)CC1)c1cc(F)ccc1Cl | inconclusive: 8.91 µM [inhibitor, partial curve, poor fit] |
| Cc1noc(C)c1-c1cc2c(cc(C)n2C)c(NCCCn2ccnc2)n1 | inconclusive: 0.794 µM [inhibitor, full curve, poor fit] |
| COc1ccccc1OCc1cc(C(=O)NCc2cccc(C)c2)n[nH]1 | inactive |
| CS(=O)(=O)N1CCC(C2CCN(C(=O)Cc3ccc(Cl)cc3)C2)CC1 (centres undefined) | inconclusive: 1.58 µM [inhibitor, full curve, poor fit] |
| Cc1ccc(S(=O)(=O)NCCc2nnc3ccc(SCc4cccc(F)c4)nn23)cc1 | inconclusive: 17.8 µM [inhibitor, single point] |
| CC(C)C[C@H](CO)NC(=O)C[C@@H]1c2nc(NC(=O)c3ccco3)sc2C[C@@H]2[C@](C)(CO)[C@H](O)CC[C@]21C | active: 8.91 µM |
| O=C(Nc1cccc(F)c1)N1CCC2(CC1)CC(OCC1CC1)CCO2 (centres undefined) | inconclusive: 2.51 µM [inhibitor, full curve, poor fit] |
| COc1ccc(OC)c(NC(=O)Nc2cccc(OCc3cc(=O)n4cc(C)ccc4n3)c2)c1 | inconclusive: 17.8 µM [inhibitor, single point] |
| CCCCN1C(=O)C(NC(=O)c2ccc(C(C)(C)C)cc2)(C(F)(F)F)C(C(=O)OC)=C1C (centres undefined) | inactive |

| Structure (SMILES) | Potency |
| --- | --- |
| COc1ccc(NC(=O)C2CCN(c3cc(C(F)(F)F)ncn3)CC2)c(OC)c1 | inactive |
| Cc1cnc(C(=O)NCCc2ncc(C)n2C2CCC2)cn1 | inconclusive: 5.01 µM [inhibitor, partial curve, poor fit] |
| CN(C)c1ncc2c(n1)C(C)(C(=O)Nc1ccncc1)CCC2 (centres undefined) | inconclusive: 25.1 µM [inhibitor, partial curve, poor fit] |
| CCOC(=O)C1CCCN(C(=O)Cc2ccc(N(Cc3ccccc3)C(=O)c3ccco3)cc2)C1 (centres undefined) | inconclusive: 20 µM [inhibitor, single point] |
| CC(=O)NC1CC2(CCN(C(=O)Cc3c[nH]c4ccccc34)CC2)c2ccccc21 (centres undefined) | inconclusive: 6.31 µM [inhibitor, partial curve, poor fit] |
| Oc1ccc(-c2nc(C3CC3)nc3c2CCN(Cc2cccc(F)c2)CC3)cc1 | inactive |
| CN1CCN(C(=O)Cc2c[nH]c3ncc(-c4ccc(Cl)cc4)cc23)CC1 | inconclusive: 1.58 µM [inhibitor, partial curve, poor fit] |
| Cc1cccc(-n2nnc(-c3nc(-c4cccs4)no3)c2N)c1C | inactive |
| Cc1ccccc1CNC(=O)CCCn1ncn2c(cc3occc32)c1=O | inactive |
| O=C1C2=C(Nc3ccccc3SC2c2ccc(C(F)(F)F)cc2)c2ccccc21 (centres undefined) | active: 4.47 µM |
| CCN(CC)c1ncccc1CNC(=O)CN1CC(c2ccccc2)CC1=O (centres undefined) | inactive |
| Cc1csc(Nc2ccc3c(n2)CN(Cc2ccccc2C)C(=O)CO3)n1 | inconclusive: 1.41 µM [inhibitor, full curve, poor fit] |
| CCCS(=O)(=O)N1CCC2(CC1)CC(=O)N(Cc1cc(F)cc(F)c1)C2 | inactive |
| CCN(C(=O)c1cc2c(=O)oc3ccccc3c2s1)c1cccc(C(F)(F)F)c1 | inactive |
| CNS(=O)(=O)c1ccc(CCC(=O)N2Cc3nnc(C)n3C(C)C2)cc1 (centres undefined) | inactive |
| CCN1c2cc(C(=O)NC3CCCC3)ccc2C(=O)N2CCCCCC21 (centres undefined) | inactive |
| CCc1nc(-c2c3n(c(=O)n(CC(=O)Nc4cccc(C)c4)c2=O)CCCCC3)no1 | inactive |
| CN1CCC(N[C@H]2CC(C)(C)[C@@H]3C[C@@](C)(O)CC[C@]23CCC(=O)NCc2cccnc2)CC1 | inactive |
| CCn1nccc1C(=O)NCc1cc(C)cc2c(C)c(-c3ccccc3)[nH]c12 | inconclusive: 0.562 µM [inhibitor, partial curve, poor fit] |
| Cc1noc(C)c1CCC(=O)NC1CCCc2c1[nH]c1ccc(F)cc21 (centres undefined) | active: 11.2 µM |
| CC(C)CC(=O)N1CCOCC12CCN(CCCc1ccccc1)CC2 | inconclusive: 31.6 µM [inhibitor, single point] |
| Cc1cccc(C(C(=O)N2CCN(CC(=O)NC(C)C)CC2)N(C)C)c1 (centres undefined) | inactive |
